Source: PubChem BioAssay AID504832 (National Center for Advancing Translational Sciences (NCATS), 2011)
Out of some 310,000 compounds screened, about 18,000 (5.8%) were called active. This list was built around the results that the source calls inconclusive (neither active nor inactive); the mix of calls is not that of the screen. Calls come from the whole dose curve; as a rule, active = well fitted inhibition curve with a large enough effect; inconclusive = small, poorly fitted or top-dose-only effect, or another doubt; inactive = no such curve, though single readings can be large or run the other way. No potency is given beside an inconclusive call; the fits are too rough.
% is set by controls: 0 for no effect and ±100 for the full control effect; potency is the fitted concentration of half-maximal effect; tags give direction and shape of the fitted curve.

Assay: Primary qHTS for delayed death inhibitors of the malarial parasite plastid, 48 hour incubation
Settings: P. falciparum luciferase growth in erythrocytes; series mostly up to 28.7 µM; activity change, negative = inhibition: at the top concentration
Method in brief: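 Luciferase-expressing parasites in RBCs, 2% Hct / 0.1% parasitemia final; RPMI 1640 + 0.5% Albumax; 37 C, 5% CO2, one generation; luminescence read-out, lower signal = inhibition.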
With CCN(CC)C(=O)c1ccc(NC(=O)c2cccc(S(=O)(=O)N3CCN(C)CC3)c2)cc1 the Potency was inconclusive [inhibitor, partial curve, poor fit].
In the case of O=C(O)CCc1ccc(-c2cccs2)n1CCc1ccccc1, the Potency is reported as inconclusive [inhibitor, partial curve, poor fit].
For Cc1ccc(-n2ncc(C(=O)NCC3CCN(C4CCCC4)C3)c2C2CCN(C(=O)OC(C)(C)C)CC2)cc1 (configuration not stated), the Potency was inconclusive [inhibitor, partial curve].
In the case of CC1CCCC(NC(=O)CN(C)CC(=O)Nc2cccc(F)c2)C1C (configuration not stated), the Potency is reported as inconclusive [inhibitor, single point].
With Cc1ccc(CSc2nc3sc(C)c(C)c3c(=O)n2Cc2ccco2)cc1 the Potency was inconclusive [inhibitor, partial curve, poor fit].
For O=C(Nc1cccc(C(F)(F)F)c1)c1ccc(-n2cncn2)nc1, the Potency was inconclusive [inhibitor, full curve, poor fit].
For COc1ccccc1NC(=O)CSc1nnc(CCNC(=O)c2ccc(C)cc2)n1C, the Potency was inconclusive [inhibitor, full curve, poor fit].
For c1ccc2c(c1)OCC(c1nn3c(Cn4nnc5ccccc54)nnc3s1)O2 (configuration not stated), the Potency was inconclusive [inhibitor, single point].
With C=CCn1c(SCC(=O)Nc2ccc3c(c2)OCO3)nnc1-c1ccccc1O the Potency was inconclusive [inhibitor, single point].
With COc1ccc(Cn2c(N)c(C(=O)NCc3ccco3)c3nc4ccccc4nc32)cc1 the Potency was inconclusive [inhibitor, single point].
For Cc1ccc(-n2c(O)c(/C=N/Nc3ccc(S(=O)(=O)N4CCOCC4)cc3[N+](=O)[O-])c3ccccc3c2=O)c(C)c1, the Potency was active: 10.4 µM.
For Nc1ccc(-c2ccc(N)cc2C(F)(F)F)c(C(F)(F)F)c1, the Potency was inconclusive [inhibitor, partial curve].
For O=C1c2oc3ccc(Cl)cc3c(=O)c2C(c2cccnc2)N1Cc1ccco1 (configuration not stated), the “activity change, negative = inhibition” value was inactive: 22.3%.
With CCOC(=O)N/C(N)=N/c1nc2ccccc2s1 the “activity change, negative = inhibition” value was inactive: 236%.
For COc1ccccc1N(C(=O)c1snc(C(N)=O)c1N)C(C(=O)NC1CCCC1)c1ccc(N(C)C)cc1 (configuration not stated), the Potency was active: 13.1 µM.
In the case of Oc1oc(-c2ccccc2)nc1/C=N/c1nccs1, the “activity change, negative = inhibition” value is reported as inactive: 36.3%.
With N#CC1(C#N)C(C(=O)C23CC4CC(CC(C4)C2)C3)C12CCOCC2 (configuration not stated) the Potency was inconclusive [inhibitor, full curve, poor fit].
With COc1ccc(CNC(=O)COC(=O)c2nc3nc(C)cc(C)n3n2)cc1 the Potency was inconclusive [inhibitor, single point].
In the case of Cc1cccc(NC(=S)N2CCC(NC(=O)C3CCCCC3)CC2)c1, the “activity change, negative = inhibition” value is reported as inactive: -13.8%.
In the case of COc1cccc(N2CCN(C(=O)c3ccccc3SCC(=O)NCc3ccco3)CC2)c1, the Potency is reported as inconclusive [inhibitor, single point].
For N/C(=N/O)C(c1ccccc1)c1ccccc1, the Potency was inconclusive [inhibitor, single point].
In the case of CCOC(=O)C1CCC2(CC1)C(C#N)=C(N)Oc1n[nH]c(C)c12 (configuration not stated), the Potency is reported as inconclusive [inhibitor, single point].
For Cc1ccc(NC(=O)CSc2nc3[nH]ncc3c(=O)[nH]2)cc1, the “activity change, negative = inhibition” value was inactive: 1.66%.
With C#CCOCCOCCOCCNc1nc(N2CCOCC2)nc(N2CCN(C(=O)[C@H](Cc3cc4ccccc4[nH]3)n3cc([C@@H](N)C(C)CC)nn3)CC2)n1 (some centres not stated) the Potency was inconclusive [inhibitor, partial curve, poor fit].
In the case of COc1ccc(N2C(=O)CC(N3CCC(O)(c4cccc(C(F)(F)F)c4)CC3)C2=O)cc1 (configuration not stated), the “activity change, negative = inhibition” value is reported as inactive: 0%.
In the case of CC(C)CNC(=O)c1c2c(nc3ccccc13)-c1ccccc1CC2, the Potency is reported as inconclusive [inhibitor, single point].
In the case of CC1CCCC(NC(=O)CCCn2c(=S)[nH]c3ccccc3c2=O)C1C (configuration not stated), the Potency is reported as inconclusive [inhibitor, partial curve].
With CN1C(=O)NC(c2ccccc2)C2=C1CN(c1cccc(C(F)(F)F)c1)C2=O (configuration not stated) the Potency was inconclusive [inhibitor, single point].
In the case of O=C(Nc1ccc(F)cc1F)c1ccc2c(c1)OCCO2, the “activity change, negative = inhibition” value is reported as inactive: 135%.
With O=C(Nc1cccc2ccccc12)C1CCN(C(=O)NCc2ccccc2)CC1 the Potency was inconclusive [inhibitor, single point].
In the case of CCCC(=O)O[C@@H]1C[C@@H](C)N(C(=O)c2ccccc2)c2ccc(C)cc21, the Potency is reported as inconclusive [inhibitor, full curve, poor fit].
With Cc1cc(NC(=O)CSc2nc3c(C)cccc3cc2C)no1 the Potency was inconclusive [inhibitor, full curve, poor fit].
With CCCNC(=O)c1ccc(S(=O)(=O)c2ccc(OC)cc2)c([N+](=O)[O-])c1 the Potency was active: 11.7 µM.
In the case of Cc1ccc(NC(NC(=O)c2ccccc2[N+](=O)[O-])C(Cl)(Cl)Cl)cc1 (configuration not stated), the Potency is reported as inconclusive [inhibitor, single point].
With Cc1ccc(SCc2nc(-c3ccccn3)no2)cc1 the “activity change, negative = inhibition” value was inactive: 139%.
With Nc1c(C(=O)NCCC2=CCCCC2)sc2ccc(S(=O)(=O)N3CCCCC3)cc12 the Potency was active: 13.1 µM.
For CCCc1c(C(=O)Nc2ccc(C(F)(F)F)cc2)cnn1-c1ccccc1, the Potency was inconclusive [inhibitor, partial curve].
For COc1ccc(C(C(=O)NC2CCCCC2)N(C(=O)c2ccco2)c2ccccc2C(C)=O)cc1 (configuration not stated), the Potency was inconclusive [inhibitor, single point].
In the case of CCc1ccccc1Nc1nc(N)nc(COC(=O)CCNS(=O)(=O)c2ccccc2)n1, the Potency is reported as active: 11.7 µM.
For COc1ccc(C2(c3ccc(OC)cc3)NC(=O)N(Cn3nnc4ccccc4c3=O)C2=O)cc1, the Potency was active: 11.7 µM.
In the case of COc1ccccc1OCC(O)CNCc1ccc2c(c1)OCO2 (configuration not stated), the “activity change, negative = inhibition” value is reported as inactive: -6.93%.
With Cc1nc2ccccc2n1C1CCN(CC(=O)Nc2ccccc2Br)CC1 the Potency was active: 11.7 µM.
In the case of O=C1/C(=C/c2cccs2)N=C(c2cccs2)N1Nc1ccccc1, the “activity change, negative = inhibition” value is reported as inactive: 20.1%.
In the case of CCCCNCC(=O)Nc1ccc(NC(=O)CNCCCC)cc1, the Potency is reported as inconclusive [inhibitor, partial curve, poor fit].
For O=C(Nc1ccc2nc(-c3ccco3)c(-c3ccco3)nc2c1)N1CCN(c2ccccn2)CC1, the Potency was inconclusive [inhibitor, single point].
In the case of CCOC(=O)C1=C(C)NC2=C(C(=O)CC(C)(C)C2)C1c1ccc2c(c1)CCCN2C (configuration not stated), the Potency is reported as active: 13.1 µM.
With Cc1nn(Cc2ccc(Cl)cc2Cl)c(Cl)c1C(=O)NC1CCCc2ccccc21 (configuration not stated) the Potency was inconclusive [inhibitor, partial curve, poor fit].
In the case of COc1ccc(-c2cc(=O)n(-c3ccc([N+](=O)[O-])cc3)[nH]2)cc1, the Potency is reported as inconclusive [inhibitor, single point].
For Cc1ccc(N(CCC#N)C(=O)COC(=O)c2ccccc2SCC(=O)N2CCCC2)cc1, the Potency was inconclusive [inhibitor, partial curve, poor fit].
With CN(C)c1ccc(/C=N/OC(=O)Nc2ccccc2)cc1 the “activity change, negative = inhibition” value was inactive: 96.4%.
With CCOc1ccccc1N(C)C(=O)CCS(=O)(=O)c1ccc2c(c1)NC(=O)C(C)S2 (configuration not stated) the Potency was inconclusive [inhibitor, partial curve].
In the case of CCC(=O)NC(C)C(c1cccs1)N1CCN(Cc2ccccc2)CC1 (configuration not stated), the “activity change, negative = inhibition” value is reported as inactive: 10.5%.
In the case of Clc1cccc(-c2nnc(SCc3nc4ccccc4[nH]3)n2Cc2ccco2)c1, the Potency is reported as inconclusive [inhibitor, single point].
With CCc1[nH]nc(C(=O)N2CCCC(CCC(=O)N3CCN(c4ccccn4)CC3)C2)c1C (configuration not stated) the Potency was inconclusive [inhibitor, single point].
With Cn1c(-c2sccc2OCc2cccc(C(F)(F)F)c2)n[nH]c1=S the Potency was inconclusive [inhibitor, single point].
With CCOc1ccc(N2CC(C(=O)Nc3nnc(CC)s3)CC2=O)cc1 (configuration not stated) the Potency was inconclusive [inhibitor, single point].
In the case of Cc1nnc(NC(=O)C2CCCN(S(=O)(=O)Cc3ccccc3)C2)s1 (configuration not stated), the Potency is reported as inconclusive [inhibitor, partial curve, poor fit].
With Fc1ccc(NC(=S)N2CCCN(c3ccc(C(F)(F)F)cn3)CC2)c(F)c1 the Potency was active: 10.4 µM.
For O=C(COC(=O)c1ccc(O)cc1)Nc1cc(S(=O)(=O)N2CCOCC2)ccc1Cl, the Potency was inconclusive [inhibitor, partial curve].
In the case of Cc1cccc(NC(=S)N(CCN2CCOCC2)Cc2cc3cc4c(cc3[nH]c2=O)OCO4)c1, the Potency is reported as inconclusive [inhibitor, single point].
In the case of O=S(=O)(c1ccc(F)cc1)N1CCN=C1SCc1cccc(F)c1, the Potency is reported as inconclusive [inhibitor, single point].
In the case of Cc1ccccc1OCCN1C(=O)c2ccccc2C1=O, the “activity change, negative = inhibition” value is reported as inactive: 44.5%.
With CCN(CC(=O)Nc1ccc(Br)cc1F)CC(=O)NC1CCS(=O)(=O)C1 (configuration not stated) the “activity change, negative = inhibition” value was inactive: -22.8%.
For COC(=O)CC[C@H](N)C(=O)O, the “activity change, negative = inhibition” value was inactive: 2.27%.
With CN(C)/C=C/C(=O)c1ccc(S(=O)(=O)c2ccccc2)cc1 the “activity change, negative = inhibition” value was inactive: -21%.
With Cc1cc(=O)oc2c(C)c(OC(C)C(=O)NC(Cc3c[nH]c4ccc(O)cc34)C(=O)O)ccc12 (configuration not stated) the “activity change, negative = inhibition” value was inactive: 28.4%.
For C#CCOC(C(=O)OCCN(C)C)(c1ccccc1)c1ccccc1, the Potency was inconclusive [inhibitor, single point].
